Measured values published in patent US12319739 (F STAR DELTA, dated 2025).

Molecular target: T1, human CD137 ligand on DO11.10 cells (human, UniProt P41273)
T1 construct: whole, on cells
Assay: flow cytometry, detected with anti mouse Fc antibody

T1 sequence (P41273 whole entry): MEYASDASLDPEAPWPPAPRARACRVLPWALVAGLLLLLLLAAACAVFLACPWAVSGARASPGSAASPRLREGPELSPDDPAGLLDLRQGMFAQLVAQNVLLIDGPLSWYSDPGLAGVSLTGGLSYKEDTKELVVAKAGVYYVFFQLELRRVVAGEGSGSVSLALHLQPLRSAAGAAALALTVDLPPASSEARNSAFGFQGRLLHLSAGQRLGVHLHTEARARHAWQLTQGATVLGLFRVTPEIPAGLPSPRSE

- binding result: binds
B1: hCD137-mFc-Avi (Fc fusion, not shown: a dimerising Fc or GST; small tags and cut ends)
chain: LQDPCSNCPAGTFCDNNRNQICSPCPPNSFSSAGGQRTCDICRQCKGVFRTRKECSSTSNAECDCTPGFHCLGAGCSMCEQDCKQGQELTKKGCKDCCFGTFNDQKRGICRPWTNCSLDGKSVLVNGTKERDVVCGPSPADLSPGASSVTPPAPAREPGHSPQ
modifications: one biotin on each Avi tag in the biotinylated form
notes: also called human dimeric CD137; human CD137-mFc-Avi
